Data as given in article PMC7819943, “Rice protein-binding microarrays: a tool to detect cis-acting elements near promoter regions in rice”.
The list shows a part of the results.

Target: T1, OsWOX13 (Oryza sativa, UniProt Q5QMM3 1-267)
T1 sequence: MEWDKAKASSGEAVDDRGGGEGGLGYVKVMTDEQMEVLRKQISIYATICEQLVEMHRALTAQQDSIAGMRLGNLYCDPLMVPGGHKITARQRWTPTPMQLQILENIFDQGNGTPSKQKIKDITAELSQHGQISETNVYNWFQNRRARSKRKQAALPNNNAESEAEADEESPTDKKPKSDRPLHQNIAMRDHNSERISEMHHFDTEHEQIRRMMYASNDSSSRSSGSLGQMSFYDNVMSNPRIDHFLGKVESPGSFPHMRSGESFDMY
Assay: protein-binding microarray (RPBM); PBS, 2% BSA, 51.3 ng/ul salmon testes DNA, 50 uM zinc acetate, 200 nM TF, 25 C, 1 h; high values mean tight binding
Conditions: protein: recombinant; tags: N-terminal polyhistidine and DsRed monomer fusion (pET32a); label: CyDye5-dUTP incorporated in the synthesized complementary strand; 3' TTTTT single-stranded linker to array surface; dsDNA, one strand shown
Summary of the method: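 Binding signal is defined as the fluorescence intensity of each feature in arbitrary units, read on an Axon 4000B scanner. Transcription factors with N-terminal polyhistidine and DsRed fusions came from E. coli BL21-CodonPlus and were purified on Ni–NTA. They were incubated at 200 nM for 1 h at 25 °C on a custom Agilent array that had been made double-stranded with Cy5-dUTP, with 50 µM zinc acetate present, and the array was washed.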

Row | Sequence | binding signal
1 | GGAGAATCTCAATTAGCTTGGGCAAAAGGCAAATTGGTCGCGGAGTCACCTAGTGCAG | 3550 fluorescence intensity (a.u.)
2 | TAATTAATTAAATTTTAATTATTATGAACTTGAGAAATGACGGAGTCACCTAGTGCAG | 39600 fluorescence intensity (a.u.)
3 | TATAGATTAATTGATATAGTTGTATACAAATTTCAATTATCGGAGTCACCTAGTGCAG | 26900 fluorescence intensity (a.u.)
4 | TAATTAATACTGAATTAATTATGCGTTAATAGCCCATCTCCGGAGTCACCTAGTGCAG | 19400 fluorescence intensity (a.u.)
5 | CATCTATATTACCTGTTCTAAATTTATATGGATAACTTAACGGAGTCACCTAGTGCAG | 3370 fluorescence intensity (a.u.)
6 | AAATGTAATTAATCTGAAACAACCTCCGTAAACTTCCCAACGGAGTCACCTAGTGCAG | 5580 fluorescence intensity (a.u.)
7 | CCATTATAAAACTAATAATCAATCTAAATGGATAGCGATCCGGAGTCACCTAGTGCAG | 11200 fluorescence intensity (a.u.)
8 | CCATGACTGGTACTCCTTATCACAAGGAACATTTCTACCGCGGAGTCACCTAGTGCAG | 21300 fluorescence intensity (a.u.)
9 | GCCGAAATGTACTAATTGTACGCGACGACGACTAGTTTATCGGAGTCACCTAGTGCAG | 6770 fluorescence intensity (a.u.)
10 | CCATAATTAGCCATAAGTGCTACAGTAACCTACATGTGCTCGGAGTCACCTAGTGCAG | 22900 fluorescence intensity (a.u.)
11 | ATTAAGCACTACGTCAGATATGATTGGCCATCATTGCATTCGGAGTCACCTAGTGCAG | 7320 fluorescence intensity (a.u.)
12 | AATAAATAGACGACTATCCCCATTTTCTTACAAGTTACAACGGAGTCACCTAGTGCAG | 9460 fluorescence intensity (a.u.)
13 | TCACAATTGAATGCTTTGGAATATTGGCATTTTGTGATTGCGGAGTCACCTAGTGCAG | 8490 fluorescence intensity (a.u.)
14 | TTTGACCGTATCAAATTTTGATAAGACAATAAACTAAACGCGGAGTCACCTAGTGCAG | 3560 fluorescence intensity (a.u.)
15 | AAGATTGAAATAATCTGACATATAGGTCCCACGCTATCTCCGGAGTCACCTAGTGCAG | 28900 fluorescence intensity (a.u.)
16 | TCACCATCAATTACCTCGTGTAAACTTCCAATCCCCTTCCCGGAGTCACCTAGTGCAG | 14800 fluorescence intensity (a.u.)
17 | GTTCAATTGAATGAGTAAAGTTAATGGATACCAATCTGCTCGGAGTCACCTAGTGCAG | 14700 fluorescence intensity (a.u.)
18 | GCACTGTCAATTGCACAAAATTAAAGCAAGCATGTAGGTACGGAGTCACCTAGTGCAG | 4720 fluorescence intensity (a.u.)
19 | CTTGTACTAATTTACGCTCATCTGTCAAAGTTGTTTCACCCGGAGTCACCTAGTGCAG | 11100 fluorescence intensity (a.u.)
20 | CTATGATTTATTAATTTTGGCGTAGTAGTGGATGGTAACACGGAGTCACCTAGTGCAG | 16200 fluorescence intensity (a.u.)
21 | CTTCATGCTGTCCCGTAATTACCAGATAATGAAAGTTGTACGGAGTCACCTAGTGCAG | 6790 fluorescence intensity (a.u.)

Row | Sequence | binding signal
22 | GCAAATGAAAATAATTTGTAAAATAAAACTTTTATATATGCGGAGTCACCTAGTGCAG | 6110 fluorescence intensity (a.u.)
23 | GAGATTGGTGGGAATTGGACCTCTTAATTTTCCATCCCAACGGAGTCACCTAGTGCAG | 26100 fluorescence intensity (a.u.)
24 | CAATAATCAATATCCCACTTTAATTAGTAGGAAACACGAACGGAGTCACCTAGTGCAG | 8110 fluorescence intensity (a.u.)
25 | TATATACTAATTAGCTACATCGATCACTAGCTATAGCTAGCGGAGTCACCTAGTGCAG | 16500 fluorescence intensity (a.u.)
26 | ATGCTTATGAACTCCGTGATTGATTGGTTCAGCGCAGTTGCGGAGTCACCTAGTGCAG | 38400 fluorescence intensity (a.u.)
27 | TACCAATTTAAATGTTTTATTGCTGTTTGGTTGCTATGCACGGAGTCACCTAGTGCAG | 7560 fluorescence intensity (a.u.)
28 | ATTTGACGACCACCGTTATTTATGTCACCGGATTTGGCCACGGAGTCACCTAGTGCAG | 6520 fluorescence intensity (a.u.)
29 | CCTGTAACTGAGAAATTAAAGTCTTTACTTATTTCTATTCCGGAGTCACCTAGTGCAG | 18900 fluorescence intensity (a.u.)
30 | ATGATTTGCATGATTGCTTGCTTGCTTGCTGCTATGGCCACGGAGTCACCTAGTGCAG | 62700 fluorescence intensity (a.u.)
31 | TAATTCTAATTTACAGCAGCGTTGTATTTAGTCATGTCCTCGGAGTCACCTAGTGCAG | 5060 fluorescence intensity (a.u.)
32 | ATAACACGTGTTTAATTGATGTTACTATATATCATGCTGACGGAGTCACCTAGTGCAG | 35000 fluorescence intensity (a.u.)
33 | ATATGACATAATTAGCCAACTAATCACAAGGCAGTCCAGTCGGAGTCACCTAGTGCAG | 42100 fluorescence intensity (a.u.)
34 | AAAAGCAAATTTAGTTTGATGGGATATATTACAGTGCAACCGGAGTCACCTAGTGCAG | 4520 fluorescence intensity (a.u.)
35 | TTAACTATTTGTCAATCTTATAAGCGATAATTAAGGATCTCGGAGTCACCTAGTGCAG | 12200 fluorescence intensity (a.u.)
36 | TACGTTCTCTAATTAATTTGCCAGACAAAACAAAACATTACGGAGTCACCTAGTGCAG | 14800 fluorescence intensity (a.u.)
37 | ACTAATTACACAGAATGCATGTAAATTACGAGACGAATCTCGGAGTCACCTAGTGCAG | 31200 fluorescence intensity (a.u.)
38 | AATGTTCAATTCAGTGACAGATTGCAGGTTTGCATATATGCGGAGTCACCTAGTGCAG | 4300 fluorescence intensity (a.u.)
39 | GTAAGAGGGATATTTGGATAATTGGCAAACCTAACAGTGACGGAGTCACCTAGTGCAG | 4000 fluorescence intensity (a.u.)
40 | CTAAATTCATTAACATTTATATGAATGTGGGCAATGCTAGCGGAGTCACCTAGTGCAG | 8430 fluorescence intensity (a.u.)
41 | CAATTCTTGATTTGCCGTCCATTCCATCTAGCACCTAGCTCGGAGTCACCTAGTGCAG | 13200 fluorescence intensity (a.u.)
42 | TTTAGCATTGTTAAAACCTGTAGTTTTGTGCTAATGGATACGGAGTCACCTAGTGCAG | 5650 fluorescence intensity (a.u.)
